B1: Construct I: SEQ ID NO 837: h IL2(C125S)-2x(SG4)-MMPcs1-2x(G4S)-hIL2Ra([…]; M25I)-hIgG1 Fc-6xHis (protein)
chain: [no letters for about 150 residues]SGGGGSGGGGGPLGVRGGGGGSGGGGSELCDDDPPEIPHATFKAMAYKEGTILNCECKRGFRRIKSGSLYMLCTGNSSHSSWDNQCQCTSSATRNTTKQVTPQPEEQKERKTTEMQSPMQPVDQASLPGHCREPPPWENEATERIYHFVVGQMVYYQCVQGYRALHRGPAESVCKMTHGKTRWTQPQLICTGEMETSQFPGEEKPQASPEGRPESETSCLVTTTDFQIQTEMAATMETSIFTTEYQ[no letters for human IgG1 Fc and a few adjoining residues]
B2: Construct K: SEQ ID NO 839: h IL2(C125S)-2x(SG4)-MMPcs1-2x(G4S)-hIL2Ra([…]; DD4-5LY)-hIgG1 Fc-6xHis (protein)
chain: [no letters for about 150 residues]SGGGGSGGGGGPLGVRGGGGGSGGGGSELCLYDPPEIPHATFKAMAYKEGTMLNCECKRGFRRIKSGSLYMLCTGNSSHSSWDNQCQCTSSATRNTTKQVTPQPEEQKERKTTEMQSPMQPVDQASLPGHCREPPPWENEATERIYHFVVGQMVYYQCVQGYRALHRGPAESVCKMTHGKTRWTQPQLICTGEMETSQFPGEEKPQASPEGRPESETSCLVTTTDFQIQTEMAATMETSIFTTEYQ[no letters for human IgG1 Fc and a few adjoining residues]
modifications: 6xHis tag
notes: DD4-5LY)-hIgG1 Fc-6xHis
B3: Construct J: SEQ ID NO 838: h IL2(C125S)-2x(SG4)-MMPcs1-2x(G4S)-hIL2Ra([…]; L42V)-hIgG1 Fc-6xHis (protein)
chain: [no letters for about 150 residues]SGGGGSGGGGGPLGVRGGGGGSGGGGSELCDDDPPEIPHATFKAMAYKEGTMLNCECKRGFRRIKSGSVYMLCTGNSSHSSWDNQCQCTSSATRNTTKQVTPQPEEQKERKTTEMQSPMQPVDQASLPGHCREPPPWENEATERIYHFVVGQMVYYQCVQGYRALHRGPAESVCKMTHGKTRWTQPQLICTGEMETSQFPGEEKPQASPEGRPESETSCLVTTTDFQIQTEMAATMETSIFTTEYQ[no letters for human IgG1 Fc and a few adjoining residues]
modifications: 6xHis tag
notes: L42V)-hIgG1 Fc-6xHis
B4: Construct L: SEQ ID NO 840: h IL2(C125S)-2x(SG4)-MMPcs1-2x(G4S)-hIL2Ra([…]; SGSL39-42ELV)-hIgG1 Fc-6xHis (protein)
chain: [no letters for about 150 residues]SGGGGSGGGGGPLGVRGGGGGSGGGGSELCDDDPPEIPHATFKAMAYKEGTMLNCECKRGFRRIKELVYMLCTGNSSHSSWDNQCQCTSSATRNTTKQVTPQPEEQKERKTTEMQSPMQPVDQASLPGHCREPPPWENEATERIYHFVVGQMVYYQCVQGYRALHRGPAESVCKMTHGKTRWTQPQLICTGEMETSQFPGEEKPQASPEGRPESETSCLVTTTDFQIQTEMAATMETSIFTTEYQ[no letters for human IgG1 Fc and a few adjoining residues]
modifications: 6xHis tag
notes: SGSL39-42ELV)-hIgG1 Fc-6xHis
B5: Construct F: SEQ ID NO 803: h IL2(C125S)-2x(SG4)-MMPcs1-2x(G4S)-chimeric IL2Ra(sushi mouse)-hIgG1 Fc (protein)
chain: [no letters for about 150 residues]SGGGGSGGGGGPLGVRGGGGGSGGGGSELCLYDPPEVPNATFKALSYKNGTILNCECKRGFRRLKELVYMRCLGNSWSSNCQCTSSATRNTTKQVTPQPEEQKERKTTEMQSPMQPVDQASLPGHCREPPPWENEATERIYHFVVGQMVYYQCVQGYRALHRGPAESVCKMTHGKTRWTQPQLICTGEMETSQFPGEEKPQASPEGRPESETSCLVTTTDFQIQTEMAATMETSIFTTEYQ[no letters for human IgG1 Fc]
B6: Construct AAA: SEQ ID NO 846: h IL2(C125S)-2x(SG4)-MMPcs1-2x(G4S)-hIL2Ra(M25I)-GSGGGG-hu IgG1 Fc (LALA) (protein)
chain: [no letters for about 150 residues]SGGGGSGGGGGPLGVRGGGGGSGGGGSELCDDDPPEIPHATFKAMAYKEGTILNCECKRGFRRIKSGSLYMLCTGNSSHSSWDNQCQCTSSATRNTTKQVTPQPEEQKERKTTEMQSPMQPVDQASLPGHCREPPPWENEATERIYHFVVGQMVYYQCVQGYRALHRGPAESVCKMTHGKTRWTQPQLICTGEMETSQFPGEEKPQASPEGRPESETSCLVTTTDFQIQTEMAATMETSIFTTEYQGSGGGG[no letters for human IgG1 Fc with changes]
B7: Construct DDD: SEQ ID NO 849: h IL2(C125S)-2x(GHHPH)-MMPcs1-2x(G4S)-hIL2Ra(M25I)-GSGGGG-hu IgG1 Fc (LALA) (protein)
chain: [no letters for about 150 residues]GHHPHGHHPHGPLGVRGGGGGSGGGGSELCDDDPPEIPHATFKAMAYKEGTILNCECKRGFRRIKSGSLYMLCTGNSSHSSWDNQCQCTSSATRNTTKQVTPQPEEQKERKTTEMQSPMQPVDQASLPGHCREPPPWENEATERIYHFVVGQMVYYQCVQGYRALHRGPAESVCKMTHGKTRWTQPQLICTGEMETSQFPGEEKPQASPEGRPESETSCLVTTTDFQIQTEMAATMETSIFTTEYQGSGGGG[no letters for human IgG1 Fc with changes]
B8: Construct EEE (protein)
chain: [no letters for about 150 residues]VRIQRKKEKMKETGPLGVRGGGGGSGGGGSELCDDDPPEIPHATFKAMAYKEGTILNCECKRGFRRIKSGSLYMLCTGNSSHSSWDNQCQCTSSATRNTTKQVTPQPEEQKERKTTEMQSPMQPVDQASLPGHCREPPPWENEATERIYHFVVGQMVYYQCVQGYRALHRGPAESVCKMTHGKTRWTQPQLICTGEMETSQFPGEEKPQASPEGRPESETSCLVTTTDFQIQTEMAATMETSIFTTEYQGSGGGG[no letters for human IgG1 Fc with changes]

system: HEK-Blue™ IL-2 cells; experiment: HEK-Blue IL2 reporter assay (SEAP, OD630); assay type: cell-based; conditions: Table 5B; cleaved with MMP9; HEK BLUE IL2; read-out: +MMP EC50
Protocol: Recombinant MMP9 and/or MMP2 (R&D Systems) was first activated with p-aminophenylmercuric acetate and this activated protease or equivalent amount of activating solution without the protease was used to digest or mock digest the fusion protein for 1 hr, 2 hr, 4 hr and overnight (18-22 hr) at 37 C. Cleavage assays are set up in TCNB buffer: 50 mM Tris, 10 mM CaCl2), 150 mM NaCl, 0.05% Brij-35 (w/v), pH 7.5. Digested protein was aliquoted and stored at −80° C. prior to testing. Aliquots of digests were subsequently analyzed by SDS-PAGE followed by Western blotting to evaluate the extent of cleavage. Digests were also assessed in functional assays such as CTLL-2 proliferation and HEK-Blue Interleukin reporter assays. As shown in FIGS. 2A-E, essentially complete cleavage by MMP9 protease of the fusion proteins with functional site is seen after overnight incubation. In contrast, proteins containing a scrambled MMP cleavage site are not cut (FIG. 2E). HEK-Blue™ IL-2 cells are specifically designed to monitor the activation of the JAK-STAT pathway induced by IL-2. Indeed, stimulation with human or murine IL-2 triggers the JAK/STAT5 pathway and induces secreted embryonic alkaline phosphatase (SEAP) production. SEAP can be readily monitored when using QUANTI-Blue™, a SEAP detection medium. These cells respond to human and murine IL-2. For the HEK Blue assay, untreated and digested samples are titrated and added to 50 000 HEK Blue cells per well in 200 ul medium in a 96-well plate and incubated at 37C in 5% CO2 for 20-24 hr. The following day, levels of SEAP are measured by adding 20 uL of cell supernatant to QuantiBlue reagent, followed by 1-3 h incubation at 37C and reading absorbance at 630 nm. FIGS. 3C-J, 3Q-Y and Table 5B-5C show results obtained from IL2 fusion proteins tested in HEK Blue IL2 assay.

| Molecule | EC50 |
| --- | --- |
| B1 | 0.0074 nM |
| B2 | 0.0055 nM |
| B3 | 0.0059 nM |
| B4 | 0.0061 nM |
| B5 | 0.0078 nM |

same assay, conditions: Table 5B; uncleaved; HEK BLUE IL2; read-out: −MMP EC50

| Molecule | EC50 |
| --- | --- |
| B1 | 0.317 nM |
| B2 | 0.0933 nM |
| B3 | 0.126 nM |
| B4 | 0.0453 nM |
| B5 | 0.174 nM |

same assay, conditions: Table 5C; cleaved with MMP9; read-out: +MMP EC50

| Molecule | EC50 |
| --- | --- |
| B6 | 0.0089 nM |
| B7 | 0.0094 nM |
| B8 | 0.0069 nM |

same assay, conditions: Table 5C; uncleaved; read-out: −MMP EC50

| Molecule | EC50 |
| --- | --- |
| B6 | 0.23 nM |
| B7 | 0.181 nM |
| B8 | 0.149 nM |

same assay, conditions: −MMP vs +MMP

| Molecule | FOLD DIFFERENCE EC50 (HEK BLUE IL2) |
| --- | --- |
| B1 | 43 |
| B2 | 17 |
| B3 | 21 |
| B4 | 7.3 |
| B5 | 22 |

From patent US20240043489A1, “Cytokine Prodrugs Comprising a Cleavable Linker” (Trutino Biosciences Inc., priority 2020, published 2024)
